Screen size: about 43,000 compounds; about 200 (0.47%) were called active. Another 12% or so got no clear call; they are omitted. Calls come from the whole dose curve; as a rule, active = well fitted cell-killing curve with a large enough effect; inconclusive = small, poorly fitted or top-dose-only effect, or effect the other way; inactive = flat fitted curve, though single readings scatter. This is one part of the list.
Test: Cell viability qHTS assay in S16 Pmp22-F2sN cells; note: nearly all actives have a fitted effect of over 65% in size
Conditions: S16 Pmp22-F2sN Schwann cells (luciferase reporters placed in the Pmp22 gene) viability, CellTiter-Glo, 24 h; series mostly up to 57.5 µM; activity change, negative = cytotoxicity: at the top concentration
How it was run: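 Luminescence from CellTiter-Glo, read by CCD camera after a 15 min room-temperature incubation, served as the viability signal. Reporter Schwann cells (S16 Pmp22-F2sN) had been treated with pin-transferred compounds for 24 h at 37C.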
% is set by controls: 0 for no effect and ±100 for the full control effect.

SMILES	activity change, negative = cytotoxicity
CCOc1ccccc1N1CC(c2nc3ccccc3n2CCCOc2ccccc2)CC1=O (configuration not stated)	inactive: 6.09%
Cc1cc(OC(C)C(=O)N2CCN(CCc3ccccn3)CC2)ccc1Cl (configuration not stated)	inactive: 13.8%
Cc1nc2c(c(SCC(=O)Nc3ccccc3C(F)(F)F)n1)CCC2	inactive: 2.1%
Cc1c(F)cccc1NS(=O)(=O)c1cccs1	inactive: -5.69%
Cc1c(C(=O)Nc2cccc(F)c2)sc2nc(-c3cc4ccccc4oc3=O)[nH]c(=O)c12	inactive: 4.43%
CN(C1CCCCC1)S(=O)(=O)c1ccc(F)c(C(=O)Nc2ccc(C(F)(F)F)cc2)c1	inactive: -0.324%
COc1ccc(NC(=O)c2c(NCc3cccs3)sc3c2CCCCC3)cc1	inactive: 6.65%
Cc1ccc(-n2nc(C)c3c(C)cc(=O)n(CC(=O)Nc4ccc(C(C)C)cc4)c32)cc1	inactive: 20.6%
CCc1ccc(NC(=O)C(=O)NCCc2sc(-c3ccc(OC)c(OC)c3)nc2C)cc1	inactive: 10.1%
CC1CCCCN1C(=O)c1ccc2c(c1)N(Cc1ccc(Cl)cc1)C(=O)c1ccccc1S2=O (configuration not stated)	inactive: -17.8%
COc1cc(OC)cc(C(=O)NCCc2csc(-c3cccc(C)c3)n2)c1	inactive: -7.1%
COc1ccccc1Cn1ccn(CC(=O)Nc2c(C)cc(C)cc2C)c(=O)c1=O	inactive: -3.11%
Cc1nnc(N2CCN(c3ccc(Cl)cc3)CC2)c2c1nnn2Cc1ccc(F)cc1	inactive: -0.646%
CC(C)C(=O)NC1CC(=O)N(c2ccc3c(c2)OCCO3)C1 (configuration not stated)	inactive: -7.06%
COc1cccc(C(c2sc3nc(-c4ccco4)nn3c2O)N2CCCC2)c1 (configuration not stated)	inactive: 10.4%
CCc1cccc(NC(=O)c2cc(-c3ccccc3)n[nH]2)c1	inactive: 0.513%
CCOC(=O)c1sc2ncn(CC(=O)Nc3cccc(C)c3)c(=O)c2c1C	inactive: 16.5%
CCOC(=O)c1[nH]c2ccccc2c1NC(=O)c1c(F)cccc1F	inactive: 12.8%
O=C(NCc1ccccc1Cl)c1ccc2c(c1)N(Cc1ccccc1)C(=O)c1ccccc1S2	inactive: 10.5%
Fc1ccccc1N1CCN(c2nnc(C(F)(F)F)c3nnn(Cc4ccccc4)c23)CC1	inactive: -0.606%
O=C(Cn1c(SCCOc2ccccc2Cl)nc2ccccc21)N1CCOCC1	inactive: -13.6%
COc1ccc2c(CNCc3ccco3)c(C(=O)O)n(Cc3ccc(F)cc3Cl)c2c1	inactive: 14.6%
CN(C)S(=O)(=O)N(CC(=O)Nc1ccc(Br)cc1F)c1ccccc1	inactive: 1.23%
COc1ccc(CCNc2ncnc3c2nnn3C)cc1OC	inactive: -12.1%
CCc1ccc(NC(=O)CSc2nc(-c3ccccc3)no2)cc1	inactive: -1.03%

SMILES	activity change, negative = cytotoxicity
Cc1ccc(-n2c3c(c(=O)[nH]c2=O)C(NS(=O)(=O)c2ccc(Cl)cc2)(C(F)(F)F)C(=O)N3)cc1 (configuration not stated)	inactive: -1.06%
NC(=O)C1CCN(c2ncnc3c2cnn3-c2ccccc2)CC1	inactive: 0.0855%
O=c1c2oc3ccccc3c2n(Cc2ccc(Cl)cc2)c(=O)n1Cc1ccc2c(c1)OCO2	inactive: 2.49%
Fc1cccc(NCc2ccccc2-c2nnc(-c3ccccc3Cl)o2)c1	inactive: 6.27%
CCC(C)NS(=O)(=O)c1ccc(N2CCCCS2(=O)=O)cc1 (configuration not stated)	inactive: -6.02%
COc1ccc(C)cc1NC(=O)C1CCCN(S(=O)(=O)c2ccc3c(c2)CCCN3C(C)=O)C1 (configuration not stated)	inactive: 0.876%
Cc1ccc(C(=O)Nc2ccc(C(=O)O)cc2)cc1S(=O)(=O)Nc1ccccc1	inactive: -2.85%
CCOCCCNC(=O)CN1C(=O)c2cccnc2Sc2ccccc21	inactive: -1.4%
CCCCNC(=O)CCCN1C(=O)CCn2nc(-c3cccn3C)cc21	inactive: -26.7%
COc1cccc(NC(=O)Cn2c(=O)n(-c3cccc(OC)c3)c(=O)c3sc4ccccc4c32)c1	inactive: 0.599%
Cc1ccc(Cl)cc1N1CCN(C2(c3ccccc3)C(=O)c3ccccc3C2=O)CC1	inactive: 10.2%
COCCNC(=O)CSc1nc2cc3c(cc2c(=O)n1CCCC(=O)NCCc1ccc(OC)c(OC)c1)OCO3	inactive: 2.57%
COc1cc(NC(=O)CN2C(=O)c3ccccc3Sc3ccc(C(=O)N4CCCC4)cc32)cc(OC)c1	inactive: 0.655%
CCOC(=O)c1ccccc1NC(=O)CN1CCCN(Cc2cc(C)ccc2C)S1(=O)=O	inactive: -5.26%
Cc1ccc(Cl)cc1NC(=O)COC(=O)CC(C)(C)CC1=NS(=O)(=O)c2ccccc2N1	inactive: -7.94%
O=C(NCCc1ccccc1)C(=O)NCC(c1ccco1)S(=O)(=O)c1cccs1 (configuration not stated)	inactive: -6.42%
COc1ccc(-c2nc(CSc3nncn4c3cc3oc(C)cc34)c(C)o2)cc1	inactive: -0.772%
Cc1ccccc1NC(=O)c1ccc(F)c(S(=O)(=O)N2CCN(c3ccccc3F)CC2)c1	inactive: -5.29%
Cc1ccc(-n2nnc(-c3nc(-c4cccs4)no3)c2N)cc1C	inactive: 2.75%
Cc1oc2ncnc(N3CCCCC3)c2c1C(=O)NCC1CCN(Cc2cccc(F)c2)CC1	inactive: -0.865%
CCOC(=O)c1[nH]c2ccccc2c1NC(=O)c1ccccc1F	inactive: -20.2%
COc1cc(NS(=O)(=O)c2ccc(NC(=O)c3cccc(F)c3)cc2)nc(OC)n1	inactive: -2.19%
Cc1ccccc1NC(=O)c1ccc2[nH]c(C)c(C)c2c1	inactive: -8.53%
CCC1CN(S(=O)(=O)c2cc(-c3cc(C)no3)ccc2C)c2cc(Cl)ccc2O1 (configuration not stated)	inactive: -2.49%
COc1cc(NC(=O)CC2C(=O)OCCN2Cc2ccccc2)cc(OC)c1 (configuration not stated)	inactive: -0.175%

SMILES	activity change, negative = cytotoxicity
Cc1c(C(=O)NCc2ccc(Cl)cc2)sc2nc3n(c(=O)c12)CCCCC3	inactive: -28.3%
Cc1c(Cl)cccc1NC(=O)Cn1c(=O)n(Cc2ccco2)c(=O)c2sc3ccccc3c21	inactive: 0.627%
CCc1nn2c(-c3ccccc3OC)ccnc2c1-c1ccccc1	inactive: 22.6%
O=C(Nc1ccc(C(=O)OCc2cc(=O)n3c4c(sc3n2)CCCC4)cc1)c1ccc(F)cc1	inactive: -7.41%
CCCc1nn2c(=O)cc(COC(=O)c3cccc(NC(=O)c4cccs4)c3)nc2s1	inactive: 16.9%
COc1ccc(C(=O)NCC(c2cccnc2)N2CCN(c3ccccc3)CC2)cc1 (configuration not stated)	inactive: -2.51%
COc1cccc(Cn2c(=O)cc(C)c3c(C)nn(C)c32)c1	inactive: -14.8%
CCOc1cccc(C2c3[nH]c4ccccc4c3CCN2C(=O)CSc2ccccc2)c1 (configuration not stated)	inactive: -2.85%
Cc1cccc(C(=O)N2CCc3cc(CNC(=O)COc4ccc(Cl)cc4)ccc32)c1	inactive: 6.67%
CCOc1ccc(NC(=O)Cn2c(=O)n(-c3cccc(Cl)c3)c(=O)c3c2c2cc(C)ccc2n3C)cc1	inactive: 12.4%
COc1cc(NC(=O)c2ccc3oc(=O)c(S(=O)(=O)c4ccccc4)cc3c2)cc(OC)c1	inactive: -2.52%
COc1cc2c(=O)c(C(=O)c3ccc(C)c(C)c3)cn(Cc3ccc(F)cc3)c2cc1OC	inactive: 3.98%
CCOc1ccccc1NC(=O)c1ccc2c(c1)CCN2S(=O)(=O)c1ccc(C)cc1	inactive: 7.5%
Cc1ccccc1NC(=O)CSc1cn(CC(=O)N2CCCCCC2)c2ccccc12	inactive: -6.77%
CCSc1nnc2c(n1)OC(c1cc(OC)c(OC)c(OC)c1)Nc1ccccc1-2 (configuration not stated)	inactive: -15.1%
CCOc1cc(CNC(=O)Cn2c(=O)c3cccn3c3ccc(F)cc32)cc(OCC)c1OCC	inactive: 4.98%
CCOC(=O)c1c(C)[nH]c(C)c1S(=O)(=O)NCC(=O)Nc1ccc(C)c(N(C)C)c1	inactive: 14.6%
CC(C)c1ccc(NC(=O)C2CCN(S(=O)(=O)c3cccc4nonc34)CC2)cc1	inactive: 19.2%
Cc1ccccc1Nc1c(-c2ccc(Cl)cc2)nc2c(C)cccn12	inactive: -9.08%
COc1ccc(NC(=O)Cn2c(=O)n(CCc3ccccc3)c(=O)c3c4c(sc32)CCCC4)cc1	inactive: 24.8%
Cc1ccc(N2C(=O)CSC23C(=O)N(Cc2ccccc2F)c2ccccc23)cc1F (configuration not stated)	inactive: 8.02%
CCOC(=O)c1c(NC(=O)c2nc(SCC)ncc2Cl)sc2c1CCCC2	inactive: 5.54%
COc1cc(OC)c(NC(=O)c2cc3c(=O)oc4ccc(C)cc4c3s2)cc1Cl	inactive: 1.89%
COc1ccc(CNC(=O)Cc2ccc(NC(=O)N3CCSc4ncccc43)cc2)cc1OC	inactive: -1.16%
Cc1cc(NC(=O)c2cc(-c3ccc(Cl)cc3)on2)n(-c2ccccc2)n1	inactive: 14.7%

SMILES	activity change, negative = cytotoxicity
CCc1cccc(C)c1NC(=O)C1CCCN1S(=O)(=O)c1cccc2nsnc12 (configuration not stated)	inactive: 8.23%
O=C(Cn1c(=O)c2cccn2c2ccccc21)NCc1ccccc1F	inactive: 10.4%
COC(=O)c1ccc(NC(=O)Cn2cnc3c2c(=O)n(C)c(=O)n3C)cc1	inactive: 1.62%
Cc1cccc(N(CC(=O)NCCSCc2ccccc2)S(=O)(=O)c2ccccc2)c1C	inactive: 1.61%
Cc1nc(N2CCCC2)c2c(C(=O)N3CCN(c4cc(Cl)ccc4C)CC3)c(C)oc2n1	inactive: -12.7%
CCn1c(=O)c(=O)n(CC)c2cc(S(=O)(=O)Nc3ccc(C)cc3)ccc21	inactive: 6.48%
Cc1ccc(NC(=O)C2CCCN(S(=O)(=O)c3c(C)noc3C)C2)cc1 (configuration not stated)	inactive: 0.0949%
Clc1ccc(-n2c(Cc3ccccc3)nnc2SCc2nc(-c3cccs3)no2)cc1	inactive: -15.9%
Nc1c(C(=O)Nc2ccccc2)sc2nc3c(cc12)CN(Cc1ccccc1)CC3	inactive: -0.879%
Cc1cccc(-n2c(=O)c3c4c(sc3n3c(C)nnc23)CCCC4)c1	inactive: 8.8%
COc1ccc(NC(=O)c2oc3ccccc3c2NC(=O)C2CCCCC2)c(OC)c1	inactive: 9.63%
CCOc1cc(C#N)c(-n2nnc3c(sc4nc(C)cc(C)c43)c2=O)cc1OCC	inactive: -2.94%
COc1ccccc1Nc1ncnc2scc(-c3ccc(F)cc3)c12	inactive: -28.4%
Cc1ccc(CNC(=O)c2ccc(CS(=O)(=O)Cc3ccc(C)cc3)o2)cc1	inactive: -1.96%
CCOC(=O)c1ccc(Nc2nn3c(=O)c4ccccc4nc3s2)cc1	inactive: 8.13%
COc1cc(OC)c(NC(=O)N2CCC(CN3CCCC3)CC2)cc1Cl	inactive: 11.9%
COc1ccc(OC)c(NC(=O)c2ccc3c(Cl)c4c(nc3c2)CCCC4)c1	inactive: 17%
CCCCN(C)C(=O)Cn1cnc2sc(C)c(S(=O)(=O)N3CCC(C)CC3)c2c1=O	inactive: -15.2%
CCCCN(CCCNC(=O)c1cc(Nc2ccccc2OC)nc2ccccc12)c1ccccc1	inactive: 9.74%
COc1ccc(CNC(=O)c2cccn2-c2nnc(N3CCCC3)s2)c(OC)c1	inactive: 4.7%
COc1ccc(C2(CNC(=O)C(=O)Nc3ccccc3C)CCCC2)cc1OC	inactive: -7.41%
CCN(CC)c1ccc(C2Nc3ccccc3-c3cc(C)nn32)cc1 (configuration not stated)	inactive: -8.01%

Source: PubChem BioAssay AID1508642 (National Center for Advancing Translational Sciences (NCATS), 2021)
